# Reference: the supplement of paper PMC4166925
# ± gives the standard deviation of the averaged measurements. In all, about 33,000 sequences were measured (“E-score (dimensionless, -0.5 to 0.5)”: median about -0.049, highest 2% from about 0.37 on). The list shows a part of the results.
# System: T1, PmTbr T-box DNA-binding domain (GST fusion)
# T1 sequence: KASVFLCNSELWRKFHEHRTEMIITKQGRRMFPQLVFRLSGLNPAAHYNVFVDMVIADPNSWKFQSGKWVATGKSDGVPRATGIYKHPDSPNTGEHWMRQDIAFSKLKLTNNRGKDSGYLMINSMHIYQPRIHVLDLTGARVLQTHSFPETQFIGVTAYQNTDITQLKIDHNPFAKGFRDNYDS
# Assay: PBM E-score of 8-mer (E-score (dimensionless, -0.5 to 0.5)); Tbr is Tbrain of the sea star Patiria miniata (Pm) or the sea urchin Strongylocentrotus purpuratus (Sp); higher = stronger binding preference; most listed sequences are background and not binding sites
# Details: the construct has about 5 more residues each side
# In short: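 Primer extension turned Universal Agilent oligonucleotide arrays double-stranded. They were incubated with 200 nM protein in PBS (pH 7.5); the protein was a GST-fused Tbr T-box DNA-binding domain expressed in BL21 E. coli at 20 °C and purified on glutathione. Every ungapped 8-mer was scored from the scanned, quantified probe intensities, and the Universal PBM Analysis Suite gave each an enrichment E-score averaged over duplicate arrays.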
row,Sequence,PBM E-score of 8-mer
1,AATACACA,0.077 ± 0.063
2,ATGTGGAA,0.00298 ± 0.025
3,GGAATAAC,0.0842 ± 0.011
4,CTGGTTAA,-0.115 ± 0.025
5,CCTCTTAG,-0.103 ± 0.0023
6,CTCGTACA,-0.195 ± 0.043
7,TAGTTTGA,-0.0649 ± 0.08
8,TATTCACA,0.411 ± 0.029
9,GCTGGGCC,-0.225 ± 0.048
10,CGGGAATC,-0.0373 ± 0.064
11,CACTCGCG,0.255 ± 0.03
12,GAGAAACC,0.0802 ± 0.033
13,ACCTATGG,0.157 ± 0.047
14,CTATCCCA,0.0112 ± 0.092
15,AGACGAGG,-0.272 ± 0.011
16,CCTCCTTA,0.121 ± 0.033
17,AGTAATTA,-0.0413 ± 0.014
18,ATAACGCC,0.237 ± 0.023
19,ACTGTTCG,0.0499 ± 0.045
20,ATCGCGTA,0.109 ± 0.0099
21,AACTCTTC,-0.0978 ± 0.022
22,TAAACGTA,-0.0963 ± 0.003

row,Sequence,PBM E-score of 8-mer
1,ACGTGTGA,0.4818 ± 0.0022
2,AACCGGTG,-0.0227 ± 0.049
3,GTCGATTA,-0.0359 ± 0.0087
4,TCACGTAA,-0.118 ± 0.023
5,CGGCCAAA,-0.076 ± 0.005
6,CACCGCTA,0.166 ± 0.058
7,ATTGTTAA,0.223 ± 0.0061
8,CTGTTAAG,0.0153 ± 0.088
9,GCTTGACA,0.237 ± 0.03
10,AACTGTGT,0.191 ± 0.033
11,AGCAAGCA,0.00822 ± 0.086
12,GCCCCCGC,-0.131 ± 0.036
13,ACGGCCAT,-0.105 ± 0.12
14,GACGCTGA,-0.201 ± 0.055
15,TCCATGAA,-0.174 ± 0.038
16,CGAGCAAC,0.0217 ± 0.067
17,GGTTACCA,-0.0529 ± 0.0032
18,GTAGCGGA,-0.0618 ± 0.041
19,ATTGGCAA,0.107 ± 0.041
20,CGTCGGGA,-0.179 ± 0.12
21,CTGGTCGC,0.0232 ± 0.025
22,ACGCGGAT,0.0103 ± 0.07

row,Sequence,PBM E-score of 8-mer
1,ATTTCCCG,-0.133 ± 0.0071
2,ATCACGCA,0.167 ± 0.0099
3,AAAGCGCT,0.0653 ± 0.07
4,TAGAGGAA,-0.273 ± 0.0069
5,AAAGGTCT,-0.225 ± 0.015
6,AGAGTGTA,0.0538 ± 0.058
7,CCTGTTAA,0.185 ± 0.023
8,ATAGAACA,0.0787 ± 0.1
9,CGTCACTA,0.2016 ± 0.00077
10,CCAATCAG,-0.0904 ± 0.015
11,AGCGGCAG,-0.0666 ± 0.088
12,ATGTACTA,-0.15 ± 0.027
13,CCGTGTTA,0.24 ± 0.041
14,ACCTTTAG,0.134 ± 0.032
15,ACTAAGGC,0.00963 ± 0.088
16,TCAGAGCA,-0.152 ± 0.053
17,AAATTCCA,-0.0182 ± 0.023
18,GCACGGCA,-0.00238 ± 0.06
19,GGGAGGTA,-0.142 ± 0.042
20,ATATGATA,0.118 ± 0.053
21,ACGCTGTG,-0.015 ± 0.023
22,ACAACAAC,0.211 ± 0.014

row,Sequence,PBM E-score of 8-mer
1,ACTCAAAT,-0.125 ± 0.039
2,GACTTAAC,0.108 ± 0.0043
3,AATTAATA,-0.105 ± 0.11
4,CGCTCCAG,-0.118 ± 0.011
5,GAGTGCGC,-0.0278 ± 0.044
6,ATAATATA,-0.0665 ± 0.069
7,ATCACGTG,0.271 ± 0.045
8,AATCAAGC,0.0954 ± 0.083
9,AGACACCC,0.259 ± 0.023
10,CAACTTAC,0.0379 ± 0.039
11,CTGGCCCA,-0.312 ± 0.078
12,AGCCGCTA,0.0966 ± 0.0034
13,CATCAGGA,-0.311 ± 0.0035
14,CGCATGAC,-0.146 ± 0.044
15,TCGTGCAA,0.057 ± 0.0072
16,CCGGCTTC,-0.132 ± 0.029
17,GAGGGTGC,0.389 ± 0.018
18,AAGTTGAT,0.159 ± 0.034
19,CATAATCA,-0.0127 ± 0.011
20,CCTCTCTC,0.095 ± 0.0011
